Laboratory results as given in PubChem BioAssay AID493208 (National Center for Advancing Translational Sciences (NCATS), 2011).
Out of some 44,000 compounds screened, about 340 (0.77%) were called active. Roughly 5% stayed inconclusive and do not appear here. Calls come from the whole dose curve; as a rule, active = well fitted inhibition curve with a large enough effect; inconclusive = small, poorly fitted or top-dose-only effect; inactive = flat fitted curve, though single readings scatter. The list shows a part of the results.

Test: Acumen qHTS Assay for Inhibitors of the mTORC1 Signaling Pathway in MEF (Tsc2-/-, p53-/-) Cells: Sytravon;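 note: plate controls were DMSO for no effect and rapamycin for full effect; nearly all actives have a fitted effect of over 50% in size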
Conditions: phospho-rpS6 immunofluorescence/PI, 24 h; series mostly up to 38.3 µM; activity change, negative = inhibition: at the top concentration
Method in brief: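 Plate MEFs (Tsc2-/-, p53-/-, empty vector) in DMEM/10% FBS; after 24 h add compound, incubate 24 h at 37 degree Celsius; fix in PFA/TX-100, block, stain phospho-rpS6 and 10 uM PI; scan at 488 nm; report % positive cells.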

Activity change, negative = inhibition, inactive:
CCN(Cc1ccccc1)c1ncnc2c1cnn2-c1ccc(F)cc1 8.69%
CCOc1ccc(CNC(=O)C2CCN(C(=O)c3ccc(-n4ccc5ccccc54)s3)CC2)cc1 -2.67%
Cc1cccc(NC(=O)Cn2c(=O)n(CCCCCC(=O)NCc3ccccc3)c(=O)c3sccc32)c1 -28.4%
CCOc1ccc(Nc2cc(C(=O)NCc3ccccc3Cl)c3ccccc3n2)cc1 -10.3%
CCOC(=O)N1CCN(C(=O)c2ccc3c(c2)N(Cc2ccccc2F)C(=O)c2ccccc2S3(=O)=O)CC1 0.0918%
CCc1ccc(NC(=O)CSc2nc3c(c(=O)[nH]2)CN(Cc2ccc4c(c2)OCO4)CC3)cc1 2.73%
O=C(COc1ccccc1)NCC(c1ccc(Cl)cc1)N1CCCCC1 (stereo not given) -27.2%
O=C(CCCc1ccccc1)NC1CC(=O)N(c2cccc(F)c2)C1 (stereo not given) 2.69%
Cc1ccc(C)c(N2CCN(S(=O)(=O)c3c(C(=O)N4CCC(C)CC4)c(C)n(C)c3C)CC2)c1 0%
O=C(Nc1ccc(Br)c(Cl)c1)c1ccc(C(=O)Nc2ccc(Br)c(Cl)c2)cc1 -5.79%
COc1ccccc1CNC(=O)C(=O)NCC(c1ccco1)S(=O)(=O)c1ccc(C)cc1 (stereo not given) 2.99%
COC(=O)C1=C(C)N(C(C)C)C(=O)C1(NC(=O)c1ccccc1OC)C(F)(F)F (stereo not given) -3.77%
CCCCCn1c(CCCNC(=O)c2ccc(Cl)cc2)nc2ccccc21 -2.33%
COc1ccc(-c2nc(C(=O)Nc3cccc(C(C)=O)c3)nn2-c2ccccc2Cl)cc1 -1.16%
COc1ccc(CNC(=O)CCc2nnc3n(C)c(=O)c4sccc4n23)cc1 13%
O=C(NCc1ccccc1Cl)c1ccccc1NC(=O)c1nsc2ccccc12 0.394%
COc1cc(OC)c(NC(=O)c2cnn(-c3ccccc3)c2-n2cccc2)cc1Cl -7.32%
CCOc1cc(-c2nc(-c3ccc(-c4ccccc4)nc3OCC)no2)cc(OCC)c1OCC 1.26%
COCCCNC(=O)c1cc2c(-c3cccc(OC)c3)nn(C)c2s1 -15.9%
O=C(CSc1nccn1Cc1ccc(Cl)cc1)Nc1nc2ccccc2s1 -19.9%
COc1ccc(N2CCN(C(=O)c3cc4c(=O)n(Cc5ccco5)ccc4nc3C)CC2)cc1 -0.615%
Cc1ccccc1CCNC(=O)c1ccc(Cn2c(=O)c3cccn3c3cccnc32)cc1 -14.1%
CCc1ccc(NC(=O)c2cc(S(=O)(=O)N3CCCC(C)C3)cn2C)cc1 (stereo not given) 0%
Cc1ccc(C)c(N2CCN(C(=O)c3cc(C)nc4c3c(C)nn4-c3ccccc3)CC2)c1 -0.86%
COc1cc(NC(=O)CCN2CCN(CCO)CC2)cc(OC)c1 1.93%
COc1cc(CN(C(=O)COc2ccc(F)cc2)c2ccccn2)cc(OC)c1OC -1.13%
CCOc1ccc(OCC(=O)Nc2ccc(S(=O)(=O)Nc3cc(C)on3)cc2)cc1 13%
CCCc1cc(=O)n2[nH]c(NCc3c(F)cccc3Cl)nc2n1 -1.01%
CCc1nn(CC(=O)NCCc2ccc(SC)cc2)c(=O)c2cc3sccc3n12 -3.1%
Cc1nc2cc(-c3cccc(F)c3)nn2c(C)c1CCC(=O)NCCc1ccccc1 4.38%
COc1ccc(N2CCN(S(=O)(=O)c3ccc4c(c3)C(C(C)C)C(=O)N4)CC2)cc1 (stereo not given) -12%
Cn1c(=O)c2sccc2n2c(CCCC(=O)Nc3ccc(Oc4ccccc4)cc3)nnc12 2.65%
CCOC(=O)COc1ccc(-c2nnn(CC(=O)Nc3ccccc3)n2)cc1 -14.8%
Cc1ccc(NC(=O)c2ccc(=O)n(CC(=O)Nc3ccccc3)n2)cc1 -4.72%
Cc1ccc(C)c(NC(=O)C2CCN(S(=O)(=O)c3c(C)noc3/C=C/c3cccs3)CC2)c1 -3.24%
Cc1sc2c(c1C)c(=O)n(CCc1ccccc1)c(=O)n2Cc1ccc(C(C)(C)C)cc1 -2.36%
CCn1c(CNC(=O)c2ccc(OC)cc2)nnc1SCC(=O)Nc1cc(C)ccc1C 3.57%
CCc1cccc(NS(=O)(=O)c2ccc3c(c2)CC(C)N3C(=O)C2CC2)c1 (stereo not given) -7.48%
CCc1c(C)c2ccc(O)c(CN3CCN(c4ccc(F)cc4)CC3)c2oc1=O -0.781%
COc1ccccc1C(=O)NCc1nc2cccnc2n1Cc1ccc(F)cc1 -3.4%
COc1ccc(Cl)cc1NC(=O)CSc1nccn1-c1ccc(Cl)cc1 0.548%
CCOCN(C(=O)Cn1c(COC)nc2ccccc21)c1c(C)cccc1CC -5.64%
COc1ccc(S(=O)(=O)N2Cc3ccccc3CC2C(=O)Nc2cc(Cl)ccc2Cl)cc1 (stereo not given) 0.0288%
COc1ccc(C(=O)NCCn2cc(SCc3ccc(C(F)(F)F)cc3)c3ccccc32)cc1OC -1.54%
Cc1cccc(NC(=O)CSC2=Nc3ccccc3C3=NC(CC(=O)NCc4cccs4)C(=O)N23)c1 (stereo not given) -5.53%
COc1cccc(CNC(=O)C2CCCN(S(=O)(=O)N(C)c3ccc(F)cc3)C2)c1OC (stereo not given) -23.6%
COc1ccc(CNC(=O)CCCn2nc(C)n3c(cc4sccc43)c2=O)cc1 1.91%
COCCn1c(C)cc(O)c(C(c2ccccc2OC)N2CCN(c3ccccc3)CC2)c1=O (stereo not given) 1.34%
Cc1ccc(NC(=O)CN2C=NS(=O)(=O)c3ccccc32)cc1 -2.11%
COc1ccc(-c2noc(CC(=O)N(C)c3cccc(C)c3)n2)cc1 3.74%
CCOC(=O)COc1ccc(CC)cc1C(=O)c1ccn2nc(-c3ccc(F)cc3)cc2n1 5.05%
CCOC(=O)c1cnc2ccc(Br)cc2c1NCCN1CCOCC1 -1.04%
COc1ccc(C(=O)c2cn(Cc3ccccc3F)c3cc4c(cc3c2=O)OCCO4)cc1OC 6.65%
O=C(Nc1ccc2c(c1)CCCN2C(=O)c1cccs1)c1ccc(F)c(F)c1 0%
Cc1ccc(N2CC(NC(=O)c3ccccc3C(F)(F)F)CC2=O)cc1C (stereo not given) -1.21%
COc1ccc(Cl)cc1S(=O)(=O)Nc1ccc2[nH]c(=O)[nH]c2c1 2.23%
Clc1ccc2c(c1)-n1cc(-c3ccccc3)nc1CO2 -10.5%
CCc1ccc(S(=O)(=O)c2cn(Cc3ccccc3)c3cc(N4CCCC4)c(F)cc3c2=O)cc1 4.11%
Cc1ccc(Cl)cc1N1CCN(C(=O)CCS(=O)(=O)c2cc(Br)cc3c2N(C(=O)C2CC2)CC3)CC1 -23.7%
COc1ccc(NC(=O)CSc2oc(-c3cccs3)nc2S(=O)(=O)c2ccccc2)c(OC)c1 -5.97%
Cc1cccc(CNC(=O)c2cc3cc(S(=O)(=O)N4CCCCC4)ccc3n2C)c1 4.5%
Cc1ccc(CCNC(=O)Cn2c(-c3cccs3)cc3ccccc32)cc1 -13.6%
CC(C)(C)C1CCc2c(sc(NC(=O)c3cccc(Cl)c3)c2C(=O)NCc2ccco2)C1 (stereo not given) -12.6%
CC(=O)c1ccc(NC(=O)C2CCN(c3nnc(C)c4c(C)n(-c5ccccc5)nc34)CC2)cc1 -3.51%
Cc1ccc(-c2cc(C(=O)N3CCN(S(=O)(=O)c4ccc(Br)cc4)CC3)[nH]n2)c(C)c1 -7.36%
CC(C)OCCCn1c(=O)c2ccccc2n2c(-c3ccccc3)nnc12 -2.31%
O=C(Cc1ccccc1)Nc1sc2c(c1C(=O)Nc1cccc(Cl)c1)CCCCC2 3.58%
CCc1nn2c(=O)cc(COC(=O)Cc3ccccc3)nc2s1 2.76%
COc1ccc(NCc2cccn2-c2nnc(N3CCCCCC3)s2)cc1 -14%
CC(C)CCOc1ccc(Cn2c(=O)oc3ccccc32)cc1 -5.55%
Cc1ccc(S(=O)(=O)c2cn(Cc3ccccc3)c3cc(N4CCCCC4)c(F)cc3c2=O)cc1 -5.3%
O=C(NCc1ccco1)c1ccc(Cn2c(SCc3ccccc3)nc3cccnc32)cc1 1.25%
COc1cc(OC)c(NC(=O)CCS(=O)(=O)c2ccc3c(c2)oc(=O)n3C)cc1Cl -9.81%
COc1ccc(NC(=O)CSC2=Nc3ccccc3C3=NC(CC(=O)NCCc4ccccc4)C(=O)N23)cc1 (stereo not given) 3.1%
CCc1ccc(CNC(=O)C2COc3ccc(OC)cc3C2)cc1 (stereo not given) -6.76%
CN(Cc1ccccc1)C(=O)CSc1nnc(-c2cccc(Cl)c2)o1 -4.5%
CCOC(=O)c1c(C)sc(-c2c(-c3ccccc3)[nH]c3[nH]c(=O)[nH]c(=O)c23)c1O -19%
COc1ccc(-c2noc(-c3ccc(N4CCOCC4)c([N+](=O)[O-])c3)n2)cc1 -1.25%
CCc1ccc(S(=O)(=O)NCc2ccc3c(c2)CCN3C(=O)c2ccc(C)cc2)cc1 -1.32%
O=C(Cn1ncc2c(Cl)cccc21)NCc1cccc(Cl)c1 1.41%
CCc1ccc(-n2nc(CO)c(C(=O)NCCOC)n2)cc1 -0.166%
COc1ccc(OC)c(S(=O)(=O)N2CCC(n3c(C)nc4cccnc43)CC2)c1 0%
CN(C(=O)CC(=O)Nc1ccc2nc3n(c(=O)c2c1)CCCCC3)c1ccccc1F 0.03%
Cc1ccc(CN(C(=O)COc2ccccc2Cl)c2ccccn2)o1 0%
Cc1ccc(CNS(=O)(=O)c2ccc(C(=O)N(C)C)s2)cc1 1.66%
CCOc1ccc(NC(=O)Cn2c(=O)n(Cc3ccc4c(c3)OCO4)c(=O)c3ccc(C(=O)NC4CCCCC4)cc32)cc1 -0.219%
CC(C)(C)C1CCc2c(sc(NC(=O)C3c4ccccc4Oc4ccccc43)c2C(N)=O)C1 (stereo not given) -16.7%
CCn1cc(S(=O)(=O)c2cc(C)cc(C)c2)c(=O)c2cc(F)c(N3CCCCC3)cc21 7.22%
COc1ccc(OC)c(CNC(=O)Nc2cn(CC(C)C)c(=O)c3ccccc23)c1 0.561%
CCC(=O)N1c2ccc(S(=O)(=O)CCC(=O)NCc3ccccc3OC)cc2CC1C (stereo not given) -0.832%
Cc1ccc(CNC(=O)Nc2cc(C(=O)NCc3cccc(F)c3)ccc2N2CCCC2)cc1 11.4%
COC(=O)c1nnn(CC(=O)NC(=O)Nc2ccc(F)cc2)c1C(=O)OC -9.65%
CC(=O)N1CCc2cc(Br)cc(S(=O)(=O)N3CCC(C(=O)Nc4cccc(C)c4C)CC3)c21 6.97%
O=C(Nc1ccc(S(=O)(=O)N2CCC(c3nc4ccccc4s3)CC2)cc1)c1ccccc1 5.36%
CCCCn1c(CNC(=O)C23CC4CC(CC(C4)C2)C3)nnc1SCC(=O)Nc1ccc(C)cc1 -13.6%
